This list was built around the results that the source calls inconclusive (neither active nor inactive); the mix of calls is not that of the screen. Potencies of inconclusive entries are doubtful fits and often do not repeat. Activity calls are given as the source filed them. Calls come from the whole dose curve; as a rule, active = well fitted inhibition curve with a large enough effect; inconclusive = small, poorly fitted or top-dose-only effect, or effect the other way; inactive = no such curve, though single readings can be large or run the other way.
Assay: Quantitative high throughput screen for delayed death inhibitors of the malarial parasite plastid, 96 hour incubation (AID 488745); note: nearly all actives have a fitted effect of over 70% in size
Conditions: Plasmodium falciparum growth; series mostly up to 28.7 µM
Excerpt: NIH Molecular Libraries Probe Production Network [MLPCN]
NIH Chemical Genomics Center [NCGC]
Assay Provider: David Fidock and Eric Ekland, Columbia University
The goal of this screen is to discover new antimalarial compounds that act by inhibiting the development of the apicoplast in the malarial parasite Plasmodium falciparum. The biochemical processes that make this organelle essential for erythrocytic stage parasites are not well understood. However, antibiotics such as azithromycin and tetracycline, which target the apicoplast translational machinery, have a potent antimalarial effect.
We have developed a cell-based assay that measures parasite growth based on the expression of an integrated copy of a firefly luciferase reporter. To detect small molecules that cause this 'delayed death' phenotype, erythrocytes infected with the luciferase-expressing parasites were incubated with compounds for either one or two generations, corresponding to 48 and 96 hours, respectively. Compounds that inhibit parasite growth in the second generation, but not the first, should be enriched in antimalarials that target the apicoplast. Growth inhibition is detected by a decrease in luciferase activity
Four microliters of culture medium (RPMI 1640 with 0.5% w/v Albumax (GIBCO), 24 mM sodium bicarbonate and 10 ug/mL gentamycin) were dispensed by a Multi-drop Combi into white solid 1536-well plates (Grenier) and 23 nL compound was added by a pin tool. Four microliters of infected erythrocytes (2% hematocrit, 0.1% parasitemia final concentration) in culture medium were dispensed and the plates incubated for 96 hours at 37 C in 5% CO2. Two microliters of luciferase detection reagent was added and luminescence was detected by a ViewLux (PerkinElmer) reader
Potency is the fitted concentration of half-maximal effect; tags give direction and shape of the fitted curve.

Q: With `Nc1ccc(N2C(=O)c3ccccc3C2=O)c(Cl)c1` as the molecule, how does the Potency read?
A: inactive

Q: For `N[C@@H](Cc1c[nH]c2ccc(O)cc12)C(=O)O`, which Potency is on record?
A: inconclusive: 18.5 µM [activator, single point]

Q: Which Potency does the source give for `CC(C)c1ccc2c(c1)c(SC(C)(C)C)c(CC(C)(C)C(=O)O)n2Cc1ccc(Cl)cc1` here?
A: active: 7.38 µM

Q: With `CC(=O)NCCc1c[nH]c2ccc(O)cc12` as the molecule, how does the Potency read?
A: inactive

Q: With `Cc1cc(C)c(/C=C2\C(=O)Nc3ccccc32)[nH]1` as the molecule, how does the Potency read?
A: inactive

Q: With `CC(C)(C(=O)O)c1ccc(C(O)CCCN2CCC(C(O)(c3ccccc3)c3ccccc3)CC2)cc1` (stereo not given) as the molecule, how does the Potency read?
A: inactive

Q: For `C=Cc1c(C)c2cc3[nH]c(cc4nc(cc5nc(cc1[nH]2)C(C)=C5CCC(=O)O)C(CCC(=O)O)=C4C)c(C)c3C=C`, which Potency is on record?
A: inactive

Q: For `NC[C@@H]1O[C@H](C23CC4CC(CC(C4)C2)C3)Cc2c1ccc(O)c2O`, which Potency is on record?
A: active: 3.29 µM

Q: With `CCCCCCCCCCCCCCCC(=O)NCCO` as the molecule, how does the Potency read?
A: inconclusive: 10.4 µM [activator, partial curve]

Q: For `COc1ccc(Cl)cc1C(=O)NCCc1ccc(S(=O)(=O)NC(=O)NC2CCCCC2)cc1`, which Potency is on record?
A: inactive

Q: For `O=c1c(-c2ccc(O)cc2)coc2cc(O)cc(O)c12`, which Potency is on record?
A: inconclusive: 3.29 µM [activator, full curve]

Q: With `O=Nc1ccc2oc(=O)ccc2c1` as the molecule, how does the Potency read?
A: inactive

Q: Which Potency does the source give for `CCN(CC)C(=S)SSC(=S)N(CC)CC` here?
A: inconclusive: 4.65 µM [inhibitor, partial curve, poor fit]

Q: With `COc1cccc(-c2cc(=O)c3ccccc3o2)c1N` as the molecule, how does the Potency read?
A: inconclusive: 1.31 µM [activator, full curve]

Q: Which Potency does the source give for `CCN(CC)CCNC(=O)c1cc(Cl)c(N)cc1OC` here?
A: inactive

Q: For `CCCCc1oc2ccccc2c1C(=O)c1cc(I)c(OCCN(CC)CC)c(I)c1`, which Potency is on record?
A: active: 8.28 µM

Q: For `NNc1nncc2ccccc12`, which Potency is on record?
A: inconclusive: 1.04 µM [activator, full curve]

Q: For `O[Si](CCCN1CCCCC1)(c1ccc(F)cc1)C1CCCCC1` (stereo not given), which Potency is on record?
A: active: 0.117 µM

Q: With `Cc1oncc1C(=O)Nc1ccc(C(F)(F)F)cc1` as the molecule, how does the Potency read?
A: inconclusive: 1.65 µM [activator, partial curve]

Q: With `CN(C)c1ccc(/C=C2\C(=O)Nc3ccccc32)cc1` as the molecule, how does the Potency read?
A: inconclusive: 2.62 µM [activator, full curve]

Q: With `CC(C)(C)c1ccc(S(=O)(=O)/C=C/C#N)cc1` as the molecule, how does the Potency read?
A: inconclusive: 9.28 µM [inhibitor, single point]

Q: Which Potency does the source give for `N#C/C(=C\c1ccc(O)c(O)c1)C(=O)c1ccc(O)c(O)c1` here?
A: inconclusive: 20.8 µM [inhibitor, partial curve, poor fit]

Q: For `OCc1cc(C(O)CNCCCCCCOCCCCc2ccccc2)ccc1O` (stereo not given), which Potency is on record?
A: inconclusive: 18.5 µM [inhibitor, single point]

Q: With `Cc1cccc(/C=C/c2ccccc2)n1` as the molecule, how does the Potency read?
A: inconclusive: 14.7 µM [activator, single point]

Q: With `COc1cc2nc(N3CCN(C(=O)C4CCCO4)CC3)nc(N)c2cc1OC` (stereo not given) as the molecule, how does the Potency read?
A: inconclusive: 4.15 µM [activator, single point]

Q: For `Nc1nc2ccc(OC(F)(F)F)cc2s1`, which Potency is on record?
A: inconclusive: 9.28 µM [activator, partial curve]

Q: For `CSc1ccc2c(c1)C(N1CCN(C)CC1)Cc1ccccc1S2` (stereo not given), which Potency is on record?
A: inconclusive: 18.5 µM [inhibitor, partial curve, poor fit]

Q: For `CC(=O)Oc1ccccc1C(=O)O`, which Potency is on record?
A: inactive

Q: Which Potency does the source give for `O=C(O)c1ccccc1Nc1ccccc1` here?
A: inconclusive: 4.15 µM [activator, single point]

Q: Which Potency does the source give for `O=C1c2c(O)ccc(O)c2C(=O)c2c(NCCNCCO)ccc(NCCNCCO)c21` here?
A: active: 1.31 µM

Q: For `O=c1c(-c2ccc(O)cc2)coc2cc(O)ccc12`, which Potency is on record?
A: inconclusive: 13.1 µM [activator, partial curve]

Q: For `CC(C)NCC(O)COc1ccc(CCOCC2CC2)cc1` (stereo not given), which Potency is on record?
A: inconclusive: 20.8 µM [activator, single point]

Q: For `NC(=O)c1ccccc1`, which Potency is on record?
A: inactive

Q: With `O=C(Nc1ccc([N+](=O)[O-])cc1Cl)c1cc(Cl)ccc1O` as the molecule, how does the Potency read?
A: inconclusive: 3.29 µM [inhibitor, full curve, poor fit]

Q: For `O=C1NC(=O)C(c2ccccc2[N+](=O)[O-])=C1Nc1ccc(O)c(Cl)c1`, which Potency is on record?
A: inconclusive: 4.15 µM [activator, single point]

Q: Which Potency does the source give for `Oc1ccc(/C=C/c2cc(O)cc(O)c2)cc1` here?
A: inconclusive: 4.15 µM [activator, single point]

Q: Which Potency does the source give for `CCCn1cnc2c1c(=O)n(CCCCC(C)=O)c(=O)n2C` here?
A: inactive

Q: For `OCC1O[C@H](O)C(Cl)C(O)C1O` (stereo not given in full), which Potency is on record?
A: inactive

Q: Which Potency does the source give for `O=C(O)/C=C/c1ccc(O)c(O)c1` here?
A: inconclusive: 0.294 µM [activator, single point]

Q: For `Nc1ccc(-c2ccc3ccccc3n2)cc1`, which Potency is on record?
A: inconclusive: 2.94 µM [activator, partial curve]
